Laboratory results reported in patent publication US8304419B2, “Chemical compounds” (priority 2007, dated 2012).
Where a name gives a salt, the structure may show the parent alone. Read-outs that look alike come from different tables or passages of the source.

How the values were obtained:
Experiment in all cases: microbe, parasite or virus in culture
HIV-1 K103N RT mutant = conditions: Human immunodeficiency virus 1, HeLa, read-out: K103N activity level, HeLa-CD4-LTR-β-gal cells, K103N virus
Source text: (§1) The HeLa cell assay described herein is a modified version of Kimpton J. and Emerman M., Detection of replication-competent and pseudotyped human immunodeficiency virus with a sensitive cell line on the basis of activation of an integrated β-galactosidase gene, J. Virol. 66:2232-2239 (1992), in which HIV-1 infection is detected by the activation of an HIV-LTR driven β-galactosidase reporter that is integrated into the genome of a CD4+ HeLa cell line. Quantitation of β-galactosidase is achieved by measuring the activation of a chemiluminescent substrate (Applied Biosystems). The concentration of each compound required to inhibit 50% (IC50) of the HIV-1 induced β-galactosidase signal, relative to untreated controls, is determined for each isogenic, recombinant virus.
(§2) HeLa-CD4-LTR-β-gal cells are propagated in DMEM containing 10% fetal bovine serum+0.2 mg/ml geneticin+0.1 mg/ml hygromycin B. Cells are split by standard trypsinization when confluency reaches 80% (roughly every 2 to 3 days).
(§3) DNA encoding the HIV-1 reverse transcriptase is subcloned from a M13 phage into a general shuttle vector, pBCSK+, as a −1.65 kbp EcoRI/HindIII ended DNA fragment. The HIV DNA insert of the resulting plasmid, is completely sequenced on both strands prior to use in site directed mutagenesis experiments. Specific amino acid replacements are made using Stratagene Quick Change reagents and mutagenic oligonucleotides. The mutations that are made include K103N, V106A, Y181C, and Y188L. Following mutagenesis, the entire mutant RT coding sequence is verified by sequencing both DNA strands.
(§4) K103N, V106A, Y181C, and Y188L mutant HIV-1 strains and wild type strains are isolated by a modified Recombinant Virus Assay (Kellam P. and Larder B., Recombinant virus assay: a rapid, phenotypic assay for assessment of drug susceptibility of human immunodeficiency virus type 1 isolates, Antimicrobial Agents and Chemotherapy, 38:23-30, 1994). Ten million MT4 T-cells (maintained in RPMI containing 10% fetal bovine serum, split 1:5 every 5 to 6 days) are co-transfected with EcoRI/HindIII digested mutant RT plasmid and Bst EII-digested HIV-1HXB2ΔRT DNA in the presence of DMRIE-C transfection reagent (Gibco) according to supplier's recommended protocol. Each mutant RT coding sequence is crossed into the RT-deleted HIV-1 viral DNA backbone by in vivo homologous recombination. Transfected cell cultures are expanded and monitored until syncitia formation and CPE are extensive. Virus is harvested by clear spin of the culture supernatants, filtration of the supernatants through a 0.45 micron membrane and frozen at −80° C. as primary stocks. Recombinant progeny virus is sequenced in the RT region to confirm the mutant genotype. Some virus stocks require further expansion by infection of MT4 cells, harvested as above and stored as frozen aliquots. All stocks are titered in HeLa MAGI cells for assay.
(§5) HIV-1 virus stocks are titered in the HeLa-CD4-LTR-β-gal assay system to establish the appropriate infecting dose. The endpoint for this assay is relative light units (RLUs), and titer is recorded as RLUs/ml. Virus stocks are diluted (serial 1:2) into DMEM containing 10% FBS plus 25 ug/ml DEAE-dextran and assayed as described in the “Experimental Protocol” section below without test compound.
(§6) • 1. Seed 96-well plate(s) (Costar #3904) with HeLa-CD4-LTR-β-gal @ 3×10^3 cells per well in 100 ul DMEM containing 10% FBS. Incubate @ 37° C., 5% CO2 overnight. Day 2 • 1. Thaw virus stock in a water bath (room temperature) and dilute into DMEM+10% FBS+25 ug/ml DEAE-dextran to an infectious dose of approximately 10 million RLU/ml. The dilution of virus will vary depending on the titer of the stock (see “Titering of virus stocks” above). • 2. Remove all of the media from every well with an 8 or 12-channel manifold aspirator. Work with one plate at a time to prevent drying of the HeLa-CD4-LTR-β-gal monolayer. Add 35 ul (approximately 350,000 total RLUs) of diluted virus to each well. […]

HIV-1 V106A RT mutant = system: HIV-1 V106A RT mutant
Source text: as §1, §2, §3, §4, §5, §6

HIV-1 Y181C RT mutant = system: HIV-1 Y181C RT mutant
Source text: as §1, §2, §3, §4, §5, §6

[1] = Human immunodeficiency virus 1, HeLa, read-out: V106A activity level, HeLa-CD4-LTR-β-gal cells, V106A virus
[2] = Human immunodeficiency virus 1, HeLa, read-out: Y181C activity level, HeLa-CD4-LTR-β-gal cells, Y181C virus

SMILES	IC50 (HIV-1 K103N RT mutant) [nM]	IC50 (HIV-1 V106A RT mutant; [1]) [nM]	IC50 (HIV-1 Y181C RT mutant; [2]) [nM]	IC50 (HIV-1 Y181C RT mutant; read-out: Y181C activity level, HeLa-CD4-LTR-β-gal cells, Y181C virus, hydrochloride) [nM]	IC50 (HIV-1 V106A RT mutant; read-out: V106A activity level, HeLa-CD4-LTR-β-gal cells, V106A virus, trifluoroacetate) [nM]	IC50 (HIV-1 V106A RT mutant; read-out: V106A activity level, HeLa-CD4-LTR-β-gal cells, V106A virus) [nM]
Cc1cccc2cc(C(=O)NCc3ccc(Cl)c(Oc4cc(Cl)cc(C#N)c4)c3F)[nH]c12 [Example 108, N-({4-chloro-3-[(3-chloro-5-cyanophenyl)oxy]-2-fluorophenyl}methyl)-7-methyl-1H-indole-2-carboxamide]	10 to 1000	10 to 1000	10 to 1000	–	–	–
N#Cc1cc(Cl)cc(Oc2c(Cl)ccc(CNC(=O)c3[nH]cnc3[N+](=O)[O-])c2F)c1 [Example 68, N-({4-chloro-3-[(3-chloro-5-cyanophenyl)oxy]-2-fluorophenyl}methyl)-4-nitro-1H-imidazole-5-carboxamide trifluoroacetate]	< 10	< 10	< 10	–	–	–
N#Cc1cc(Cl)cc(Oc2c(Cl)ccc(CNC(=O)c3csnn3)c2F)c1 [Example 90, N-({4-chloro-3-[(3-chloro-5-cyanophenyl)oxy]-2-fluorophenyl}methyl)-1,2,3-thiadiazole-4-carboxamide]	10 to 1000	> 1000	10 to 1000	–	–	–
CC(C)c1nc(Cl)c(C(=O)NCc2ccc(Cl)c(Oc3cc(Cl)cc(C#N)c3)c2F)[nH]1 [Example 135, 4-chloro-N-({4-chloro-3-[(3-chloro-5-cyanophenyl)oxy]-2-fluorophenyl}methyl)-2-(1-methylethyl)-1H-imidazole-5-carboxamide trifluoroacetate]	< 10	< 10	< 10	–	–	–
N#Cc1cc(Cl)cc(Oc2c(Cl)ccc(CNC(=O)c3n[nH]c([N+](=O)[O-])c3Br)c2F)c1 [Example 69, 4-bromo-N-({4-chloro-3-[(3-chloro-5-cyanophenyl)oxy]-2-fluorophenyl}methyl)-5-nitro-1H-pyrazole-3-carboxamide trifluoroacetate]	10 to 1000	10 to 1000	10 to 1000	–	–	–
CN1CCCC1CCOc1ccc2[nH]c(C(=O)NCc3ccc(Cl)c(Oc4cc(Cl)cc(C#N)c4)c3F)cc2c1 (stereo not drawn) [Example 104, N-({4-chloro-3-[(3-chloro-5-cyanophenyl)oxy]-2-fluorophenyl}methyl)-5-{[2-(1-methyl-2-pyrrolidinyl)ethyl]oxy}-1H-indole-2-carboxamide]	< 10	10 to 1000	< 10	–	–	–
N#Cc1cc(Cl)cc(Oc2cc(CNC(=O)c3cc4cc([N+](=O)[O-])ccc4[nH]3)ccc2Cl)c1 [Example 9, N-({4-chloro-3-[(3-chloro-5-cyanophenyl)oxy]phenyl}methyl)-5-nitro-1H-indole-2-carboxamide]	> 1000	> 1000	> 1000	–	–	–
N#Cc1cc(Cl)cc(Oc2c(Cl)ccc(CNC(=O)c3cc4cccc(O)c4[nH]3)c2F)c1 [Example 32, N-({4-chloro-3-[(3-chloro-5-cyanophenyl)oxy]-2-fluorophenyl}methyl)-7-hydroxy-1H-indole-2-carboxamide]	10 to 1000	> 1000	10 to 1000	–	–	–
COc1ccc2[nH]c(C(=O)NCc3ccc(Cl)c(Oc4cc(Cl)cc(C#N)c4)c3F)cc2c1Br [Example 73, 4-bromo-N-({4-chloro-3-[(3-chloro-5-cyanophenyl)oxy]-2-fluorophenyl}methyl)-5-(methyloxy)-1H-indole-2-carboxamide trifluoroacetate]	10 to 1000	10 to 1000	10 to 1000	–	–	–
Cn1cnc(C(=O)NCc2ccc(Cl)c(Oc3cc(Cl)cc(C#N)c3)c2F)c1 [Example 64, N-({4-chloro-3-[(3-chloro-5-cyanophenyl)oxy]-2-fluorophenyl}methyl)-1-methyl-1H-imidazole-4-carboxamide trifluoroacetate]	10 to 1000	10 to 1000	10 to 1000	–	–	–
COc1ccc(C(=O)NCc2ccc(Cl)c(Oc3cc(Cl)cc(C#N)c3)c2)c(C)c1 [Example 2, N-({4-chloro-3-[(3-chloro-5-cyanophenyl)oxy]phenyl}methyl)-2-methyl-4-(methyloxy)benzamide]	> 1000	> 1000	> 1000	–	–	–
CCCCc1nc(Cl)c(C(=O)NCc2ccc(Cl)c(Oc3cc(Cl)cc(C#N)c3)c2F)[nH]1 [Example 140, 2-butyl-4-chloro-N-({4-chloro-3-[(3-chloro-5-cyanophenyl)oxy]-2-fluorophenyl}methyl)-1H-imidazole-5-carboxamide trifluoroacetate]	< 10	10 to 1000	< 10	–	–	–
N#Cc1cc(Cl)cc(Oc2c(Cl)ccc(CNC(=O)c3cc4cc(F)ccc4[nH]3)c2F)c1 [Example 41, N-({4-chloro-3-[(3-chloro-5-cyanophenyl)oxy]-2-fluorophenyl}methyl)-5-fluoro-1H-indole-2-carboxamide]	10 to 1000	> 1000	10 to 1000	–	–	–
N#Cc1cc(Cl)cc(Oc2c(Cl)ccc(CNC(=O)c3snnc3-c3ccccc3)c2F)c1 [Example 99, N-({4-chloro-3-[(3-chloro-5-cyanophenyl)oxy]-2-fluorophenyl}methyl)-4-phenyl-1,2,3-thiadiazole-5-carboxamide]	> 1000	> 1000	> 1000	–	–	–
N#Cc1cc(Cl)cc(Oc2c(Cl)ccc(CNC(=O)c3ncc[nH]3)c2F)c1 [Example 59, N-({4-chloro-3-[(3-chloro-5-cyanophenyl)oxy]-2-fluorophenyl}methyl)-1H-imidazole-2-carboxamide trifluoroacetate]	< 10	< 10	< 10	–	–	–
Cc1c(C(=O)NCc2ccc(Cl)c(Oc3cc(Cl)cc(C#N)c3)c2F)[nH]c2ccc(Cl)cc12 [Example 40, 5-chloro-N-({4-chloro-3-[(3-chloro-5-cyanophenyl)oxy]-2-fluorophenyl}methyl)-3-methyl-1H-indole-2-carboxamide]	10 to 1000	10 to 1000	10 to 1000	–	–	–
N#Cc1cc(Cl)cc(Oc2c(Cl)ccc(CNC(=O)c3cc4cc(OC[C@H]5CNCCO5)ccc4[nH]3)c2F)c1 [Example 25, N-({4-chloro-3-[(3-chloro-5-cyanophenyl)oxy]-2-fluorophenyl}methyl)-5-{[2R)-2-morpholinylmethyl]oxy}-1H-indole-2-carboxamide hydrochloride]	–	–	–	< 10	–	–
N#Cc1cc(Cl)cc(Oc2c(Cl)ccc(CNC(=O)c3ccc[nH]3)c2F)c1 [Example 58, N-({4-chloro-3-[(3-chloro-5-cyanophenyl)oxy]-2-fluorophenyl}methyl)-1H-pyrrole-2-carboxamide trifluoroacetate]	–	–	–	–	< 10	–
N#Cc1cc(Cl)cc(Oc2c(Cl)ccc(CNC(=O)c3ncc[nH]3)c2F)c1 [Example 60, N-({4-chloro-3-[(3-chloro-5-cyanophenyl)oxy]-2-fluorophenyl}methyl)-1H-imidazole-2-carboxamide]	–	–	–	–	–	10 to 1000
